Measured values from the supplement of paper PMC12217912.
This is one part of the list. Sequences were assembled here from the parent chain. Values near 0.05 are background.

B1: TEV protease; numbered along this chain (parent)
chain: MGESLFKGPRDYNPISSSICHLTNESDGHTTSLYGIGFGPFIITNKHLFRRNNGTLVVQSLHGVFKVKDTTTLQQHLVDGRDMIIIRMPKDFPPFPQKLKFREPQREERICLVTTNFQTKSMSSMVSDTSCTFPSGDGIFWKHWIQTKDGQCGSPLVSTRDGFIVGIHSASNFTNTNNYFTSVPKNFMELLTNQEAQQWVSGWRLNADSVLWGGHKVFMVKPEEPFQPVKEATQL
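Note: Bxb1 expression induced with 0.2% (w/v) L-rhamnose at OD600 near 0.5, cultures sampled hourly, flipped fraction per protease–substrate barcode pair counted by paired-end Illumina sequencing.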

Variants of: B1
Assay: raw area under fraction-flipped curve 0-4 h after induction (AUC4h, not background-subtracted), DNA-recorder readout of cleavage of the substrate (dimensionless); higher = more cleavage of the substrate by the protease variant
Conditions: temperature: 34 °C; time window: 0-4 h after rhamnose induction
Procedure: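 In vivo DNA recorder in E. coli TOP10(DE3) ΔrhaA at 34 °C. Each TEVp single-site mutant (parent TEVp 0) is paired with a single-site variant of the 7-mer TEVs (canonical ENLYFQ|S). The substrate sits between flexible linkers in a Bxb1-sfGFP-TEVs-SsrA fusion, so cleavage stabilises Bxb1 and speeds flipping of a recombination array, read by NGS. The value is the raw area under the fraction-flipped curve over 0-4 h after rhamnose induction (AUC4h), with ≥20 reads per time point. It is not background-subtracted; inactive controls average about 0.047.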
In the case of MGESLFKGPRDYNPISSSICHLTNESDGHTTSLYGIGFGPFIITNKHLFRRNNGTLVVQSLHGVFKVKDTTTLQQHLVDGRDMIGIRMPKDFPPFPQKLKFREPQREERICLVTTNFQTKSMSSMVSDTSCTFPSGDGIFWKHWIQTKDGQCGSPLVSTRDGFIVGIHSASNFTNTNNYFTSVPKNFMELLTNQEAQQWVSGWRLNADSVLWGGHKVFMVKPEEPFQPVKEATQL [I85G], the “area with substrate ENAYFQS” value is reported as 0.0557, the “area with substrate ENCYFQS” value is reported as 0.0405 and the “area with substrate ENDYFQS” value is reported as 0.0486. The “area with substrate ENEYFQS” value was 0.0532, the “area with substrate ENKYFQS” value was 0.0735 and the “area with substrate ENNYFQS” value was 0.0534. For the same variant, the “area with substrate ENPYFQS” value was 0.0539, the “area with substrate ENQYFQS” value was 0.0485 and the “area with substrate ENSYFQS” value was 0.0444. For the same variant, the “area with substrate ENTYFQS” value was 0.0481, the “area with substrate ENWYFQS” value was 0.0389 and the “area with substrate ENYYFQS” value was 0.0551. In the case of MGESLFKGPRDYNPISSSICHLTNESDGHTTSLYGIGFGPFIITNKHLFRRNNGTLVVQSLHGVFKVKDTTTLQQHLVDGRDMIIIRMPKDFYPFPQKLKFREPQREERICLVTTNFQTKSMSSMVSDTSCTFPSGDGIFWKHWIQTKDGQCGSPLVSTRDGFIVGIHSASNFTNTNNYFTSVPKNFMELLTNQEAQQWVSGWRLNADSVLWGGHKVFMVKPEEPFQPVKEATQL [P93Y], the “area with substrate ENAYFQS” value is reported as 0.0657, the “area with substrate ENEYFQS” value is reported as 0.0658 and the “area with substrate ENMYFQS” value is reported as 0.0645. For the same variant, the “area with substrate ENRYFQS” value was 0.0662, the “area with substrate ENVYFQS” value was 0.0746 and the “area with substrate ENWYFQS” value was 0.0088. The “area with substrate ENYYFQS” value was 0.0579. With MGESLFKGPRDYNPISSSICHLTNESDGHTTSLYGIGFGPFIITNKHLFRRNNGTLVVQSLHGVFKVKDTTTLQQHLVDGRDMIIIRMPKDFNPFPQKLKFREPQREERICLVTTNFQTKSMSSMVSDTSCTFPSGDGIFWKHWIQTKDGQCGSPLVSTRDGFIVGIHSASNFTNTNNYFTSVPKNFMELLTNQEAQQWVSGWRLNADSVLWGGHKVFMVKPEEPFQPVKEATQL [P93N] the “area with substrate ENAYFQS” value was 0.0501, the “area with substrate ENFYFQS” value was 0.0662 and the “area with substrate ENVYFQS” value was 0.0616. In the case of MGESLFKGPRDYNPISSSICHLTNESDGHTTSLYGIGFGPFIITNKHLFRRNNGTLVVQSLHGVFKVKDTTTLQQHLVDGRDMIIIRMPKDFRPFPQKLKFREPQREERICLVTTNFQTKSMSSMVSDTSCTFPSGDGIFWKHWIQTKDGQCGSPLVSTRDGFIVGIHSASNFTNTNNYFTSVPKNFMELLTNQEAQQWVSGWRLNADSVLWGGHKVFMVKPEEPFQPVKEATQL [P93R], the “area with substrate ENAYFQS” value is reported as 0.0686, the “area with substrate ENHYFQS” value is reported as 0.0367 and the “area with substrate ENKYFQS” value is reported as 0.0861. The “area with substrate ENPYFQS” value was 0.0615, the “area with substrate ENRYFQS” value was 0.0673 and the “area with substrate ENSYFQS” value was 0.0552. For MGESLFKGPRDYNPISSSICHLTNESDGHTTSLYGIGFGPFIITNKHLFRRNNGTLVVQSLHGVFKVKDTTTLQQHLVDGRDMIIIRMPKDFHPFPQKLKFREPQREERICLVTTNFQTKSMSSMVSDTSCTFPSGDGIFWKHWIQTKDGQCGSPLVSTRDGFIVGIHSASNFTNTNNYFTSVPKNFMELLTNQEAQQWVSGWRLNADSVLWGGHKVFMVKPEEPFQPVKEATQL [P93H], the “area with substrate ENAYFQS” value was 0.0425, the “area with substrate ENDYFQS” value was 0.0477 and the “area with substrate ENEYFQS” value was 0.0652. The “area with substrate ENQYFQS” value was 0.0523. For MGESLFKGPRDYNPISSSICHLTNESDGHTTSLYGIGFGPFIITNKHLFRRNNGTLVVQSLHGVFKVKDTTTLQQHLVDGRDMIIIRKPKDFPPFPQKLKFREPQREERICLVTTNFQTKSMSSMVSDTSCTFPSGDGIFWKHWIQTKDGQCGSPLVSTRDGFIVGIHSASNFTNTNNYFTSVPKNFMELLTNQEAQQWVSGWRLNADSVLWGGHKVFMVKPEEPFQPVKEATQL [M88K], the “area with substrate ENAYFQS” value was 0.0555, the “area with substrate ENCYFQS” value was 0.126 and the “area with substrate ENDYFQS” value was 0.0561. The “area with substrate ENEYFQS” value was 0.0507, the “area with substrate ENFYFQS” value was 0.0475 and the “area with substrate ENMYFQS” value was 0.0653. For the same variant, the “area with substrate ENNYFQS” value was 0.0534, the “area with substrate ENQYFQS” value was 0.0659 and the “area with substrate ENSYFQS” value was 0.0551. With MGESLFKGPRDYNPISSSICHLTNESDGHTTSLYGIGFGPFIITNKHLFRRNNGTLVVQSLHGVFKVKDTTTLQQHLVDGRDMIIIRMPKVFPPFPQKLKFREPQREERICLVTTNFQTKSMSSMVSDTSCTFPSGDGIFWKHWIQTKDGQCGSPLVSTRDGFIVGIHSASNFTNTNNYFTSVPKNFMELLTNQEAQQWVSGWRLNADSVLWGGHKVFMVKPEEPFQPVKEATQL [D91V] the “area with substrate ENAYFQS” value was 0.0736, the “area with substrate ENCYFQS” value was 0.0412 and the “area with substrate ENDYFQS” value was 0.0611. The “area with substrate ENEYFQS” value was 0.0775, the “area with substrate ENHYFQS” value was 0.0567 and the “area with substrate ENIYFQS” value was 0.107. For the same variant, the “area with substrate ENPYFQS” value was 0.0553, the “area with substrate ENQYFQS” value was 0.0538 and the “area with substrate ENRYFQS” value was 0.0778. The “area with substrate ENSYFQS” value was 0.0487, the “area with substrate ENVYFQS” value was 0.0751 and the “area with substrate ENWYFQS” value was 0.0658. For MGESLFKGPRDYNPISSSICHLTNESDGHTTSLYGIGFGPFIITNKHLFRRNNGTLVVQSLHGVFKVKDTTTLQQHLVDGRIMIIIRMPKDFPPFPQKLKFREPQREERICLVTTNFQTKSMSSMVSDTSCTFPSGDGIFWKHWIQTKDGQCGSPLVSTRDGFIVGIHSASNFTNTNNYFTSVPKNFMELLTNQEAQQWVSGWRLNADSVLWGGHKVFMVKPEEPFQPVKEATQL [D82I], the “area with substrate ENAYFQS” value was 0.0462, the “area with substrate ENCYFQS” value was 0.065 and the “area with substrate ENEYFQS” value was 0.0492. The “area with substrate ENNYFQS” value was 0.0524, the “area with substrate ENRYFQS” value was 0.0509 and the “area with substrate ENVYFQS” value was 0.0506. For the same variant, the “area with substrate ENYYFQS” value was 0.0576. In the case of MGESLFKGPRDYNPISSSICHLTNESDGHTTSLYGIGFGPFIITNKHLFRRNNGTLVVQSLHGVFKVKDTTTLQQHLVDGRDMIIIGMPKDFPPFPQKLKFREPQREERICLVTTNFQTKSMSSMVSDTSCTFPSGDGIFWKHWIQTKDGQCGSPLVSTRDGFIVGIHSASNFTNTNNYFTSVPKNFMELLTNQEAQQWVSGWRLNADSVLWGGHKVFMVKPEEPFQPVKEATQL [R87G], the “area with substrate ENAYFQS” value is reported as 0.0445, the “area with substrate ENEYFQS” value is reported as 0.0111 and the “area with substrate ENGYFQS” value is reported as 0.0553. The “area with substrate ENNYFQS” value was 0.0414, the “area with substrate ENPYFQS” value was 0.0514 and the “area with substrate ENQYFQS” value was 0.0591. The “area with substrate ENRYFQS” value was 0.0939 and the “area with substrate ENWYFQS” value was 0.0041. For MGESLFKGPRDYNPISSSICHLTNESDGHTTSLYGIGFGPFIITNKHLFRRNNGTLVVQSLHGVFKVKDTTTLQQHLVDGRDMIIIPMPKDFPPFPQKLKFREPQREERICLVTTNFQTKSMSSMVSDTSCTFPSGDGIFWKHWIQTKDGQCGSPLVSTRDGFIVGIHSASNFTNTNNYFTSVPKNFMELLTNQEAQQWVSGWRLNADSVLWGGHKVFMVKPEEPFQPVKEATQL [R87P], the “area with substrate ENAYFQS” value was 0.0534, the “area with substrate ENCYFQS” value was 0.0582 and the “area with substrate ENEYFQS” value was 0.0571. For the same variant, the “area with substrate ENHYFQS” value was 0.056, the “area with substrate ENQYFQS” value was 0.058 and the “area with substrate ENSYFQS” value was 0.0657. For the same variant, the “area with substrate ENVYFQS” value was 0.075 and the “area with substrate ENYYFQS” value was 0.0617. With MGESLFKGPRDYNPISSSICHLTNESDGHTTSLYGIGFGPFIITNKHLFRRNNGTLVVQSLHGVFKVKDTTTLQQHLVDGRDMIIGRMPKDFPPFPQKLKFREPQREERICLVTTNFQTKSMSSMVSDTSCTFPSGDGIFWKHWIQTKDGQCGSPLVSTRDGFIVGIHSASNFTNTNNYFTSVPKNFMELLTNQEAQQWVSGWRLNADSVLWGGHKVFMVKPEEPFQPVKEATQL [I86G] the “area with substrate ENAYFQS” value was 0.0287, the “area with substrate ENEYFQS” value was 0.0576 and the “area with substrate ENFYFQS” value was 0.0445. For the same variant, the “area with substrate ENIYFQS” value was 0.035, the “area with substrate ENMYFQS” value was 0.0469 and the “area with substrate ENPYFQS” value was 0.0385. For the same variant, the “area with substrate ENQYFQS” value was 0.0411, the “area with substrate ENRYFQS” value was 0.0247 and the “area with substrate ENTYFQS” value was 0.0425. The “area with substrate ENVYFQS” value was 0.0298. For MGESLFKGPRDYNPISSSICHLTNESDGHTTSLYGIGFGPFIITNKHLFRRNNGTLVVQSLHGVFKVKDTTTLQQHLVDGRDMIIYRMPKDFPPFPQKLKFREPQREERICLVTTNFQTKSMSSMVSDTSCTFPSGDGIFWKHWIQTKDGQCGSPLVSTRDGFIVGIHSASNFTNTNNYFTSVPKNFMELLTNQEAQQWVSGWRLNADSVLWGGHKVFMVKPEEPFQPVKEATQL [I86Y], the “area with substrate ENAYFQS” value was 0.0577, the “area with substrate ENCYFQS” value was 0.0538 and the “area with substrate ENFYFQS” value was 0.0645. For the same variant, the “area with substrate ENPYFQS” value was 0.0558, the “area with substrate ENQYFQS” value was 0.0549 and the “area with substrate ENSYFQS” value was 0.062. The “area with substrate ENTYFQS” value was 0.0536.
